# Reference: the supplement of paper PMC11060735
# Values joined by “and” are separate entries in the source; they are usually repeats but may differ in a detail not shown here. Equal entries are not always repeated. Structures can show the parent of a compound that is named as a salt. Among all 1,800 compounds or so, about 50 (3%) showed activity. The list shows a part of the results.
# Test system: mouse p16Ink4a+/- lung fibroblasts (INKBRITE, bleomycin-injured)
# Assay: percentage of GFP+ (p16Ink4a+) fibroblasts among all cells in well; higher = less depletion of p16Ink4a+ cells, active = 20 or less
# Conditions: 1 µM; 3 days
# 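Also: fibroblasts sorted 14 days after bleomycin, GFP+ and GFP− mixed 1:1 in 384-well plates (GFP− as in-well control), imaged after Hoechst and NucView530 staining, reference wells lacked compound.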
row,SMILES,percentage of GFP+
1,CCN(CC)CCCC(C)Nc1c2ccc(Cl)cc2nc2ccc(OC)cc12 (stereo not given) [Quinacrine],inactive: 46.6%
2,O=C1CCc2cc(OCCCCc3nnnn3C3CCCCC3)ccc2N1 [Cilostazol],inactive: 45.1%
3,O=C(O)CCc1ccc(NCc2cccc(Oc3ccccc3)c2)cc1,inactive: 49.9%
4,COc1ccc(Cl)cc1NC(=O)Nc1cc(C)nc2ccccc12,inactive: 49.7%
5,COC(=O)C1=CO[C@@H](O[C@@H]2O[C@H](CO)[C@@H](O)[C@H](O)[C@H]2O)[C@@H]2C(CO)=CC[C@H]12 [Geniposide],inactive: 45.3%
6,CC(c1cc2ccccc2s1)N(O)C(N)=O (stereo not given) [Zileuton],inactive: 36.8%
7,C=C[C@H]1CN2CC[C@H]1C[C@H]2[C@H](O)c1ccnc2ccc(OC)cc12 [Quinine],inactive: 39.1%
8,C[C@@H]1[C@H](O)[C@@H](C)/C=C/C=C/C=C/C=C/C=C/C=C/C=C/[C@H](O[C@@H]2O[C@H](C)[C@@H](O)[C@H](N)[C@@H]2O)C[C@@H]2O[C@](O)(C[C@@H](O)C[C@@H](O)[C@H](O)CC[C@@H](O)C[C@@H](O)CC(=O)O[C@H]1C)C[C@H](O)[C@H]2C(=O)O [Amphotericin B],inactive: 44.2%
9,c1ccc2c(Oc3nc(Nc4ccc(N5CCOCC5)cc4)c4ncn(C5CCCCC5)c4n3)cccc2c1 [Purmorphamine],inactive: 32.7%
10,COc1ccc(CC2c3cc(OC)c(OC)cc3CC[N+]2(C)CCC(=O)OCCCCCOC(=O)CC[N+]2(C)CCc3cc(OC)c(OC)cc3C2Cc2ccc(OC)c(OC)c2)cc1OC (stereo not given) [Atracurium Besylate],inactive: 36.5%
11,CC(=O)[C@H]1CC[C@H]2[C@@H]3CC=C4C[C@@H](O)CC[C@]4(C)[C@H]3CC[C@]12C [Pregnenolone],inactive: 41.7%
12,COc1cccc(Nc2c(C(N)=O)cnc3c(C)cc(S(=O)(=O)c4cccc(C(=O)N(C)C)c4)cc23)c1,inactive: 49.9%
13,CC(C(=O)O)c1ccc2c(c1)CC(=O)c1ccccc1S2 (stereo not given) [Zaltoprofen],inactive: 45.1%
14,CCC[C@H](NC(=O)[C@@H]1[C@H]2CCC[C@H]2CN1C(=O)[C@@H](NC(=O)[C@@H](NC(=O)c1cnccn1)C1CCCCC1)C(C)(C)C)C(=O)C(=O)NC1CC1 [Telaprevir],inactive: 42.6%
15,Cc1nc(NC(=O)N2CCC[C@H]2C(N)=O)sc1-c1ccnc(C(C)(C)C(F)(F)F)c1,inactive: 34.4%
16,CCC[C@H](NC(=O)/C(C#N)=C/c1cccc(Br)n1)c1ccccc1 [Degrasyn],active: 13.1%
17,CCN(c1cc(-c2ccc(CN3CCOCC3)cc2)cc(C(=O)NCc2c(C)cc(C)nc2O)c1C)C1CCOCC1,inactive: 54.5%
18,CCn1c(-c2nonc2N)nc2c(C#CC(C)(C)O)ncc(OC[C@H]3CCCNC3)c21,inactive: 40.4%
19,C[C@H](NC(=O)CCc1nc(O)c2ccccc2n1)c1ccccc1,inactive: 48.5%
20,O=C(CCCN1CCN(c2ccccn2)CC1)c1ccc(F)cc1 [Azaperone],inactive: 53.9%
21,CCCCc1oc2ccc(NS(C)(=O)=O)cc2c1C(=O)c1ccc(OCCCN(CCCC)CCCC)cc1 [Dronedarone],inactive: 38.1%
22,CN1c2cc(O)c(N=NC(N)=O)cc2CC1S(=O)(=O)O (stereo not given) [Carbazochrome sodium sulfonate],inactive: 43%

row,SMILES,percentage of GFP+
1,O=C1CC2(CCCC2)CC(=O)N1CCCCN1CCN(c2ncccn2)CC1 [Buspirone],inactive: 46.7%
2,Cc1ccc(C(=O)NCCCCCC(=O)Nc2ccccc2N)cc1,inactive: 40.4%
3,CCN(CC)C(=O)/C(C#N)=C/c1cc(O)c(O)c([N+](=O)[O-])c1 [Entacapone],inactive: 37.1%
4,CCCC(=O)OCO/C(O)=C1\C(C)=NC(C)=C(C(=O)OC)C1c1cccc(Cl)c1Cl (stereo not given) [Clevidipine],inactive: 45.7%
5,CC(C)C[C@H](NC(=O)[C@H](CCc1ccccc1)NC(=O)CN1CCOCC1)C(=O)N[C@@H](Cc1ccccc1)C(=O)N[C@@H](CC(C)C)C(=O)[C@@]1(C)CO1 [Carfilzomib],active: 4.67%
6,O=C[C@H](O)[C@@H](O)[C@H](O)[C@H](O)CO [D-glucose],inactive: 42.5%
7,Cc1cc(Nc2ccc(NC(=O)c3ccc(Nc4ccnc5ccccc45)cc3)cc2)nc(N)n1,inactive: 49.5%
8,C=CC(=O)Nc1cccc(Nc2nc(Nc3ccc(OCCOC)cc3)ncc2F)c1,inactive: 41.3%
9,COc1ccc(-c2cnc3c(-c4cccc5ncccc45)cnn3c2)cc1,inactive: 45.2%
10,C=CC1=C(C(=O)O)N2C(=O)[C@@H](NC(=O)/C(=N\O)c3csc(N)n3)[C@H]2SC1 [Cefdinir],inactive: 49.9%
11,CCN(CCO)CCCOc1ccc2c(Nc3cc(CC(=O)Nc4cccc(F)c4)[nH]n3)ncnc2c1,inactive: 41%
12,Cc1cc(C)c(Nc2ccnc(Nc3ccc(C#N)cc3)n2)c(C)c1 [Dapivirine],inactive: 46%
13,O=C1OC(CN2CCOCC2)CN1/N=C/c1ccc([N+](=O)[O-])o1 (stereo not given) [Furaltadone],inactive: 50.3%
14,O=C(C1CCCCC1)N1CC(=O)N2CCc3ccccc3C2C1 (stereo not given) [Praziquantel],inactive: 44.9%
15,Cc1cccc(C#Cc2ccccc2)n1,inactive: 45%
16,C[C@@H](c1ncncc1F)[C@](O)(Cn1cncn1)c1ccc(F)cc1F [Voriconazole],inactive: 53.2%
17,CCOC(=O)C1=C(N)Oc2ccc(Br)cc2[C@H]1[C@H](C#N)C(=O)OCC,inactive: 45%
18,CC(=O)O[C@]1(C(C)=O)CC[C@H]2[C@@H]3CCC4=CC(=O)CCC4=C3[C@@H](c3ccc(N(C)C)cc3)C[C@@]21C [Ulipristal],inactive: 42.8%
19,NC12CC3CC(CC(C3)C1)C2 [Amantadine],inactive: 40.2%
20,CC(C)(Oc1ccc(Cl)cc1)C(=O)O [Clofibric Acid],inactive: 44.7%
21,CC1(C)[C@@H](O)CC[C@]2(C)[C@H]3C(=O)C=C4[C@@H]5C[C@@](C)(C(=O)O)CC[C@]5(C)CC[C@@]4(C)[C@]3(C)CC[C@@H]12 [Enoxolone],inactive: 43.2%
22,Cc1ccccc1C(=O)Nc1ccc(C(=O)N2CCCC(N(C)C)c3ccccc32)cc1 (stereo not given) [Mozavaptan],inactive: 57.8%

row,SMILES,percentage of GFP+
1,COc1cc([C@@H]2c3cc4c(cc3[C@@H](O[C@@H]3O[C@@H]5CO[C@@H](c6cccs6)O[C@H]5[C@H](O)[C@H]3O)[C@H]3COC(=O)[C@H]23)OCO4)cc(OC)c1O [Teniposide],inactive: 21.1%
2,CCO[C@@H]1OC(=O)C[C@@H]1NC(=O)[C@@H]1CCCN1C(=O)[C@@H](NC(=O)c1ccc(N)c(Cl)c1)C(C)(C)C,inactive: 35.6%
3,CCC1(c2ccccc2)C(=O)NCNC1=O [Primidone],inactive: 38.9%
4,CO[C@H]1/C=C/O[C@@]2(C)Oc3c(C)c(O)c4c(O)c(c5c(nc6cc(C)ccn65)c4c3C2=O)NC(=O)/C(C)=C\C=C\[C@H](C)[C@H](O)[C@@H](C)[C@@H](O)[C@@H](C)[C@H](OC(C)=O)[C@@H]1C [Rifaximin],inactive: 46%
5,CN(CCOc1ccc(NS(C)(=O)=O)cc1)CCc1ccc(NS(C)(=O)=O)cc1 [Dofetilide],inactive: 40.4%
6,COc1ccc2cc3[n+](cc2c1OC)CCc1cc2c(cc1-3)OCO2 [Berberine],inactive: 38.5%
7,Cc1ccc(Nc2nccc(N(C)c3ccc4c(C)n(C)nc4c3)n2)cc1S(N)(=O)=O [Pazopanib],inactive: 27.5% and inactive: 28.8%
8,O=C1CN2Cc3c(ccc(Cl)c3Cl)N=C2N1 [Anagrelide],inactive: 46.1%
9,CC1(C)CCC(CN2CCN(c3ccc(C(=O)NS(=O)(=O)c4ccc(NCC5CCOCC5)c([N+](=O)[O-])c4)c(Oc4cnc5[nH]ccc5c4)c3)CC2)=C(c2ccc(Cl)cc2)C1 [Venetoclax],inactive: 54.5%
10,CCCCCCCCCCC[C@@H](C[C@@H]1OC(=O)[C@H]1CCCCCC)OC(=O)[C@H](CC(C)C)NC=O [Orlistat],inactive: 46.3%
11,CC(=O)O[C@]1(C(C)=O)CC[C@H]2[C@@H]3C=C(C)C4=CC(=O)CC[C@]4(C)[C@H]3CC[C@@]21C [Megestrol Acetate],inactive: 39.5%
12,C=C1CC[C@@H]2[C@](C)(CO)[C@H](O)CC[C@@]2(C)[C@@H]1C/C=C1/C(=O)OCC1O (stereo not given in full) [Andrographolide],inactive: 33.7%
13,CCn1c2ccccc2c2cc(Nc3ccnc(NCCCN4CCOCC4)n3)ccc21,inactive: 52.4%
14,CC(C)n1nc(-c2ccc3oc(N)nc3c2)c2c(N)ncnc21,inactive: 43.3%
15,COc1cc2c(N3CCN(C(=O)Nc4ccc(OC(C)C)cc4)CC3)ncnc2cc1OCCCN1CCCCC1,inactive: 44.4%
16,O=C(CS(=O)Cc1ccco1)NC/C=C\COc1cc(CN2CCCCC2)ccn1 (stereo not given) [Lafutidine],inactive: 36.9%
17,CS(=O)(=O)OCCCCOS(C)(=O)=O [Busulfan],inactive: 50.1%
18,COc1cc2nc(N3CCN(C(=O)C4CCCO4)CC3)nc(N)c2cc1OC (stereo not given) [Terazosin],inactive: 47.2%
19,"COc1cc(OC)c(C(=O)CCCN2CCCC2)c(OC)c1 [Buflomedil, Buflomedil Hydrochloride]",inactive: 39.9%
20,COc1ccc(C2=NC(c3ccc(Cl)cc3)C(c3ccc(Cl)cc3)N2C(=O)N2CCNC(=O)C2)c(OC(C)C)c1 (stereo not given) [Nutlin-3],inactive: 44.3%
21,O=c1cc(-c2ccccc2)oc2cc(O)c(O)c(O)c12 [Baicalein],inactive: 39.1%
